Measurements reported in US20230312722A1 (NONA BIOSCIENCES SUZHOU, published 2023).

Legend:
[1] = molecular target: T1, human B7H4 on the cell surface (human, UniProt Q7Z7D3 25-282); assay: FACS, SK-BR-3 cells
T1 construct: whole, on cells; also called CHOK1/hu B7H4; B7H4 on SK-BR-3
T1 sequence (looked up): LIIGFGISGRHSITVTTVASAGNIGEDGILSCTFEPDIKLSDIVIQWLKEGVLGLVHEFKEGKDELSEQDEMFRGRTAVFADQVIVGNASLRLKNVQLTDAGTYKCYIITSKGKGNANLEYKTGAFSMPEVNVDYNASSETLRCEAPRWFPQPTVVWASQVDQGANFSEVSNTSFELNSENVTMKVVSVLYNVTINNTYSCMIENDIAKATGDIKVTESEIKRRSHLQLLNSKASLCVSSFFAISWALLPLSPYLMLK
Procedure: (§1) This example is intended to investigate the in vitro binding activity of anti-human B7H4 H2L2 monoclonal antibody to human/cynomolgus monkey/mouse B7H4. Antibody binding experiments at the cellular level were performed using CHOK1 cell line overexpressing human B7H4 (CHOK1/hu B7H4, Harbour BioMed), CHOK1 cell line overexpressing cynomolgus monkey B7H4 (CHOK1/cyno B7H4, Harbour BioMed), CHOK1 cell line overexpressing mouse B7H4 (CHOK1/m B7H4, Harbour BioMed) and SK-BR-3 cell line (ATCC® HTB-30) highly expressing human B7H4. Briefly, CHOK1/hu B7H4 cells, CHOK1/cyno B7H4 cells, CHOK1/m B7H4 cells or SK-BR-3 cells were digested and resuspended with PBS containing 2% BSA. The cell density was adjusted to 1×10⁶ cells/mL. The cells were seeded in a 96-well V-bottom plate (Corning, #3894) at 100 μL/well, followed by the addition of test antibodies diluted in a 3-fold concentration gradient of 2 times the final concentration, each at 100 μL/well. The cells were incubated at 4° C. for 2 h away from light. Thereafter, the cells in each well were rinsed twice with 100 μL of pre-cooled PBS containing 2% BSA, and centrifuged at 500 g at 4° C. for 5 min, and then the supernatant was discarded. Then 100 μL of a fluorescent secondary antibody (Alexa Fluor 488-conjugated AffiniPure Goat Anti-Human IgG, Fcγ Fragment Specific, Jackson, #109-545-098, 1:500 diluted) was added to each well. The plate was incubated away from light at 4° C. for 1 h. The cells in each well were washed twice with 100 μL of pre-cooled PBS containing 2% BSA, and centrifuged at 500 g at 4° C. for 5 minutes, and then the supernatant was discarded. Finally, the cells in each well were resuspended with 200 μL of pre-cooled PBS containing 2% BSA, and the fluorescence signal values were read using an ACEA Novocyte3000 flow cytometer.

[2] = molecular target: T2, mouse B7H4 on the cell surface (mouse, UniProt Q7TSP5 25-257); assay: FACS, CHOK1/m B7H4 cells
T2 construct: whole, on cells; also called CHOK1/m B7H4
T2 sequence (looked up): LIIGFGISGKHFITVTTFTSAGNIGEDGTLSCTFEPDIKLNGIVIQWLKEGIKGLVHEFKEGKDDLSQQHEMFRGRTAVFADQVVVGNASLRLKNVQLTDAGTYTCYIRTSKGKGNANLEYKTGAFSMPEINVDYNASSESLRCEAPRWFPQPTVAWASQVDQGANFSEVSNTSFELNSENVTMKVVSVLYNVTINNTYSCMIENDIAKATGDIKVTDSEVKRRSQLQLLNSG
Procedure: as §1

[3] = molecular target: T3, Human B7-2/CD86 Protein, Fc Tag (Acro CD6-H5257) (human, UniProt P42081 26-247); assay: ELISA, plate coated with 1 µg/mL B7 family protein
T3 construct: Bought protein
T3 sequence (looked up): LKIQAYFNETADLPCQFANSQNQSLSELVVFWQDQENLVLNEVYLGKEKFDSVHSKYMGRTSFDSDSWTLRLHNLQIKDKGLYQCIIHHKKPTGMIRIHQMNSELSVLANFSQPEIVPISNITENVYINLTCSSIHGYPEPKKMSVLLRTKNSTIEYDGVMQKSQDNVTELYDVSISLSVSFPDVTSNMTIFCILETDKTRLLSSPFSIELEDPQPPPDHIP
Procedure: (§2) The proteins of the B7 family (see Table 9-1 for details) were each diluted to 1 μg/mL with PBS, added to a 96-well plate (Corning, #9018) at 100 μL per well, and incubated overnight at 4° C. After the liquid was discarded, the plate was washed 3 times with PBST buffer (pH 7.4, containing 0.05% tween-20), and 250 μL of 2% BSA blocking buffer was added. The plate was incubated at 37° C. for 1 hour. The blocking buffer was discarded, and the plate was washed 3 times with PBST buffer (pH 7.4, containing 0.05% Tween-20). The test antigen-binding protein was diluted to 2 concentrations: 10 nM and 1 nM, and added at 100 μL per well. The plate was incubated at 37° C. for 1 hour. An isotype antibody was taken as a control. After the plate was washed 3 times with PBST buffer (pH 7.4, containing 0.05% Tween-20), the plate was added with a 5000-fold diluted goat anti-human F(ab′)₂ HRP secondary antibody (Jackson ImmunoResearch, 109-035-097), and incubated at 37° C. away from light for 1 hour. After the plate was washed 3 times with PBST buffer (pH 7.4, containing 0.05% Tween-20), TMB (Biopanda, #TMB-S-003) was added at 100 μL/well. The plate was left away from light at room temperature for about 30 minutes. The reactions were terminated by adding 50 μL of stop buffer (BBI life sciences, #E661006-0200) to each well, and the absorbance values at 450 nm (OD450) was measured using a microplate reader (PerkinElemer, #Enspire).

[4] = molecular target: T4, Human PD-L1/B7-H1 Protein, His Tag (Acro PD1-H5229) (human, UniProt Q9NZQ7 partial chain); assay: ELISA, plate coated with 1 µg/mL B7 family protein
T4 construct: Bought protein
Procedure: as §2

[5] = molecular target: T5, Recombinant human B7H7/HHLA2 Fc Chimera (R&D 8084-B7-050) (human, UniProt Q9UM44 23-344); assay: ELISA, plate coated with 1 µg/mL B7 family protein
T5 construct: Bought protein
T5 sequence (looked up): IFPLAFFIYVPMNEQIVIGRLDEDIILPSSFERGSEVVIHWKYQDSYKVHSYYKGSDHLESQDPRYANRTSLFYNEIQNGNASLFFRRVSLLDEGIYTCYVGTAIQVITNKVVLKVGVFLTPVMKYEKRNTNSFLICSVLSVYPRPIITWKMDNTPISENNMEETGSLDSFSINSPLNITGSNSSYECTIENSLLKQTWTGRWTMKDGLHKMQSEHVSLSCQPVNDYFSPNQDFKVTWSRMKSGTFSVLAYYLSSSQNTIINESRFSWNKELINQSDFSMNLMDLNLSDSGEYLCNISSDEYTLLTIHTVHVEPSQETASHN
Procedure: as §2

T4 sequence (Q9NZQ7 19-238 limits assumed): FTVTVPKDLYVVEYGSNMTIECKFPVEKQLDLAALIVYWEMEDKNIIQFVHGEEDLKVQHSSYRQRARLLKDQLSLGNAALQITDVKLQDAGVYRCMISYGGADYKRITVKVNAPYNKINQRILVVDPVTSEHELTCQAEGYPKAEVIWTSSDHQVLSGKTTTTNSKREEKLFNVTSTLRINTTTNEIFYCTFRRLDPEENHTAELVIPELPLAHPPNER

EC50 [1]: 1.92 nM
Maximum MFI [1]: 242000 MFI
EC50 [2]: 1.99 nM
Maximum MFI [2]: 1.46e+06 MFI
binding result [3]: no binding (tested: 10 nM)
binding result [4]: no binding (tested: 10 nM)
binding result [5]: no binding (tested: 10 nM)
B1: PR002421 (antibody, human IgG1, kappa)
heavy: QVQLVQSGAEVKKPGSSMRVSCKASEDTFSSYAISWVRQAPGQGLEWMGGTAPIFGTTNYAQKFQGRVTITADKSTSTAYMELSSLRSEDTAVYYCARGGPYFDYWGQGTLVTVSSASTKGPSVFPLAPSSKSTSGGTAALGCLVKDYFPEPVTVSWNSGALTSGVHTFPAVLQSSGLYSLSSVVTVPSSSLGTQTYICNVNHKPSNTKVDKKV[human IgG1 Fc with changes not written out]
light: EIVMTQSPASLSVSPGERATLSCRASQSVSSNLAWYQQKPGQAPRLLIYGASTRATGIPARVSGGGSGTEFTLTISSLQSEDFAVYYCQQYKNWPFTFGPGTKLEIKRTVAAPSVFIFPPSDEQLKSGTASVVCLLNNFYPREAKVQWKVDNALQSGNSQESVTEQDSKDSTYSLSSTLTLSKADYEKHKVYACEVTHQGLSSPVTKSFNRGEC
notes: PTM variant/DE mutant of PR002037 (L: C87Y; Fc S239D, I332E), human IgG1; also called RP002421
